# According to the supplement of paper PMC4466236:
# Over roughly 33,000 sequences, “E-score (dimensionless, -0.5 to 0.5)” has its median near -0.058; the highest 2% begin near 0.35. This is one part of the list.
# Tested on: MvaT
# Assay: PBM 8-mer E-score (mean of HK and ME arrays) (E-score (dimensionless, -0.5 to 0.5)); higher = stronger relative binding preference; most listed sequences are background and not binding sites
# How it was run: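 Full-length P. aeruginosa MvaT carrying an N-terminal glutathione S-transferase tag was tested by protein binding microarray following a previously described protocol. Two universal double-stranded 60-mer arrays, ME and HK, were used, each with a constant 25-mer primer region and a variable 35-mer region covering all 8-mers. The rank-based E-score is the mean of the two arrays, parsed with a custom script. Its range runs from -0.5 to 0.5 for each 8-mer.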
row,Sequence,PBM 8-mer E-score
1,AAGGCCCC,-0.374
2,TGGATGAA,0.0531
3,CGCCCCCG,-0.35
4,ACTTACGC,0.114
5,GACTCTGA,-0.157
6,GTCGGGGA,-0.0791
7,AGTTGAAC,0.0069
8,AGTGTTTC,0.161
9,TGCTCACA,-0.0823
10,ATACTCGG,0.0138
11,AAGAATAC,0.118
12,GACAATTA,0.319
13,ACGAGGCG,-0.21
14,AGATAGCT,-0.189
15,CCGAGGAG,-0.344
16,CGGAGTAG,-0.106
17,TAAGAGCA,0.0541
18,ACGCGCAT,-0.121
19,CAATAAAG,0.252
20,CCCCTGGA,-0.328
21,GCGAATCA,-0.189
22,GCTTAGAC,-0.047
23,CCAAGGCC,-0.219
24,ATGAGTGG,-0.0617
25,ATGTTTGA,0.189

row,Sequence,PBM 8-mer E-score
1,TCCTGGCA,-0.144
2,CGCCGGGA,-0.228
3,GCGCTCCC,-0.314
4,CATGTATA,0.264
5,CACGAACA,-0.0447
6,ATAACGTA,0.255
7,ATGCTGTG,0.0845
8,GCCGGGCC,-0.266
9,ACGAATAA,0.259
10,GGGCCTTA,-0.0543
11,GACCAGAA,0.0488
12,GCGAGGCC,-0.291
13,ACCAACCG,-0.102
14,GTACGAAC,0.0637
15,GCAGAACA,-0.0745
16,AGGTCTCG,-0.241
17,GTTTCGAA,0.0411
18,AGCCCCCA,-0.266
19,TCCTTGCA,-0.0026
20,ATGTCAGA,-0.0205
21,AGATATCC,-0.0391
22,AAATGATT,0.165
23,AGGGACAA,-0.0788
24,GTAAAGGA,-0.0842
25,CACTTGAG,-0.0853

row,Sequence,PBM 8-mer E-score
1,ACCCCCTA,-0.316
2,CTACTGGA,-0.112
3,TCCGTGAA,-0.0575
4,ACGATCGC,-0.157
5,AGCGAACA,-0.105
6,CGTGGTAC,-0.0852
7,AAAAATGG,0.0876
8,TCCATACA,0.0243
9,ACCGTGAC,-0.11
10,ACTTGACC,-0.00383
11,CGGAGCCC,-0.226
12,AGAAGACA,0.0191
13,AGGAGAGC,-0.304
14,CTATAGCA,0.0375
15,AAGCGTTG,-0.0764
16,TATTTCCA,0.312
17,CCGGGCAG,-0.319
18,CAGCCGCG,-0.258
19,ATACAGTA,0.284
20,CCTCCTGA,-0.324
21,CTCCGGTC,-0.106
22,GAATGGCC,-0.138
23,CAGTCGTC,-0.153
24,CATCGAGC,-0.118
25,AGTCCTAG,-0.168

row,Sequence,PBM 8-mer E-score
1,CCTCCGTA,-0.327
2,GAGTATGC,0.0856
3,CATTCAAG,0.0214
4,CTACTTAA,0.255
5,CAGCGTAG,-0.152
6,CATGTCGG,-0.063
7,AAGGACCG,-0.158
8,AGCGTCTC,-0.29
9,GGCTCACA,-0.151
10,GACACGTA,0.0346
11,GATTGGCA,-0.153
12,ACCAGCAA,0.0594
13,CTACCCTC,-0.249
14,ACGAGCCT,-0.209
15,AGCTAGAC,-0.119
16,CGTAGGCC,-0.294
17,GCCCTCGA,-0.345
18,AGCGTATC,-0.151
19,GCGATCAA,-0.00435
20,GTCATGTA,-0.0366
21,GCACCCAA,-0.0708
22,ATGGGTTG,-0.032
23,CTAAGCAG,-0.208
24,TCAATCCA,-0.104
25,CCCGTCTC,-0.187

row,Sequence,PBM 8-mer E-score
1,TCCGAGGA,-0.105
2,CCGGTCCG,-0.107
3,ATGAGATA,0.098
4,GGACTTAC,-0.0202
5,AGAGGCAT,-0.0507
6,AGACATAC,0.108
7,CCAGCAAC,-0.0157
8,CGGATTTA,0.0502
9,AATTTAGG,0.182
10,ACGGCGAC,-0.219
11,AAAGAGAC,-0.0566
12,ATGCATCG,0.0128
13,AGTGTGAA,0.204
14,AGCGTCCG,-0.21
15,GAATGTTA,0.275
16,GACAACTA,0.219
17,ATCGTAGC,-0.068
18,ACTCCGGC,-0.254
19,GATGCTAA,0.0177
20,AAGCATAA,0.0984
21,AGATAAAG,0.0927
22,ACAATCCA,0.0225
23,AACTTAGC,0.247
24,ATTTAAAT,0.474
25,GGATTGCC,-0.0996

row,Sequence,PBM 8-mer E-score
1,ATGACTCG,-0.0983
2,ACACGAGC,-0.154
3,CAATTCAA,0.19
4,ACCTTAAT,0.262
5,AATCGGGC,0.00445
6,CAAGCATG,-0.192
7,CATTCGCG,-0.0993
8,CGACGGGC,-0.139
9,CTAACGGC,-0.153
10,ACATATAT,0.47
11,ACGACGGC,-0.188
12,CACTACGG,-0.0812
13,GTCAGTGA,-0.0379
14,TCCGATCA,-0.265
15,AGAGAAAA,0.0443
16,ATTGGACG,-0.0897
17,GTATATAA,0.401
18,AGTGACGG,-0.166
19,ACTTTGCC,0.134
20,CCCTTTGC,-0.196
21,ATTTCGGC,0.139
22,AGCCAAGA,-0.0913
23,AGTGTTTA,0.22
24,CAGCTGCC,-0.182
25,TAACACGA,0.0945

row,Sequence,PBM 8-mer E-score
1,AGTCCTAA,-0.032
2,GGATGACA,-0.0203
3,ATCCAAGG,-0.209
4,CTTAGTTA,0.273
5,ACAGTCGG,-0.075
6,ACACACGT,-0.119
7,AGCAAAAA,0.0929
8,TGGACTAA,0.0684
9,TCACGGCA,-0.00811
10,CCGAGGCG,-0.245
11,ACTATCGG,0.111
12,CAATGTCA,0.137
13,CTTCCGTA,-0.0849
14,ACGTAATC,-0.0211
15,AAGGTCAT,-0.0555
16,CGGTGCCC,-0.305
17,AATTGAGT,0.191
18,CTGTAACA,0.19
19,AAAAAAGT,0.25
20,ACTCTGTG,-0.0869
21,CCACATCA,0.0469
22,AACCCCGG,-0.199
